Test results: PubChem BioAssay AID504706 (National Center for Advancing Translational Sciences (NCATS), 2011)
Out of some 320,000 compounds screened, about 200 (0.062%) were called active. The inconclusive results got no clear call from the source; some entries with a clear call stand among them for comparison. The call rests on the fitted dose curve; in most records, active means well fitted activation curve with a large enough effect; inconclusive means small, poorly fitted or top-dose-only effect; inactive means no such curve, though single readings can be large or run the other way. Potencies of inconclusive entries are left out as doubtful fits.

Assay: qHTS assay for re-activators of p53 using a Luc reporter; further: nearly all actives have a fitted effect of over 45% in size
Conditions: H1299 p53-A138V BP100-luciferase reporter, luminescence, 24 h; series mostly up to 92.2 µM
Method in brief: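 p53-null H1299 cells stably carrying temperature-sensitive p53-A138V and a BP100-luciferase reporter were pinned with compounds (4-point, 1:5 series) and held 24 hrs at 37 deg C. Luminescence was read 10 min after detection reagent.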
Potency means the concentration at half of the fitted maximal effect; tags describe the fitted curve by direction and shape.

Row | SMILES | Potency
1 | CN1/C(=C\C(=O)Nc2ccc(Cl)cc2)C(C)(C)c2ccccc21 | inconclusive [activator, single point]
2 | O=C(Nc1ccc(O)c(-c2nc3ccccc3o2)c1)C1(c2ccccc2)CCCC1 | inactive
3 | N#C/C(=N\Nc1ccc(F)cc1)C(=N)N1CCCCC1 | inconclusive [activator, full curve]
4 | Cc1ccc(SCC(=O)NC2CCCCCC2)cc1 | inconclusive [activator, partial curve, poor fit]
5 | COc1cccc(OC)c1C(=O)N1CCN(S(=O)(=O)c2ccccc2)CC1 | inconclusive [activator, single point]
6 | O=C(N/N=C/c1ccco1)c1ccc(NC(=O)c2ccccc2Cl)cc1 | inconclusive [activator, single point]
7 | CC1=C(C(=O)OCc2ccccc2)C(c2cccc(F)c2)NC(=O)N1 (configuration not stated) | inconclusive [activator, single point]
8 | COc1cc(C(=O)NC(C)c2ccccc2)ccc1OCC(=O)N1CCOCC1 (configuration not stated) | inconclusive [activator, single point]
9 | CC1(c2ccc3ccccc3c2)NC(=O)N(CC(=O)Nc2cccc(S(=O)(=O)N3CCOCC3)c2)C1=O (configuration not stated) | inactive
10 | COc1cc2cc(CN(CCc3cccc(C)c3)C(=S)NCCCN(C)C)c(=O)[nH]c2cc1OC | inactive
11 | CCC(C)NC(=O)CSc1ccc(Cl)cc1 (configuration not stated) | inconclusive [activator, partial curve, poor fit]
12 | O=C(C1CC1)N1CCc2[nH]c3ccccc3c2C1 | inconclusive [activator, partial curve, poor fit]
13 | COc1ccc(-c2noc(N3CCC(C(=O)N4CCN(c5ccccn5)CC4)CC3)n2)cc1 | inconclusive [activator, single point]
14 | Fc1ccc(CSc2ccc(-c3cccs3)nn2)cc1 | inconclusive [activator, partial curve, poor fit]
15 | CC(C)(C)c1ccc(C(=O)NCC(=O)NNC(=O)c2ccccc2O)cc1 | inactive
16 | COc1ccccc1C(=O)Nc1nnc(-c2ccc(F)cc2)s1 | inconclusive [activator, partial curve, poor fit]
17 | O=C(CSc1ncn[nH]1)Nc1nc(-c2ccccc2)ns1 | inconclusive [activator, partial curve, poor fit]
18 | Cc1ccc(C)c(OCc2cc(C(=O)N3CCOCC3)no2)c1 | inconclusive [activator, partial curve, poor fit]
19 | CN(C)C=C1C(=O)c2ccccc2C1=O | inconclusive [activator, partial curve, poor fit]
20 | CCC(C(=O)Nc1nc(C)c(C)s1)c1ccccc1 (configuration not stated) | inactive
21 | Cc1ccc(-c2cc(-c3cccc(F)c3)n[nH]2)c(O)c1 | inconclusive [activator, partial curve, poor fit]
22 | COCCc1nc2ccc(C(=O)N3CCCCC3COC)cc2o1 (configuration not stated) | inactive
23 | CN(C)CCNC(=O)c1[nH]nc2c1CCc1ccccc1-2 | inconclusive [activator, single point]

Row | SMILES | Potency
24 | CCOc1cccc2cc(C(=O)OCC(=O)Nc3c(C)cccc3CC)c(=O)oc12 | inconclusive [activator, partial curve, poor fit]
25 | O=C1c2ccccc2C(=O)N1CCC1=CCCCC1 | inconclusive [activator, single point]
26 | O=C(COC(=O)C1COc2ccccc2O1)NC(=O)NC1CCCC1 (configuration not stated) | inactive
27 | CC(=O)[C@H]1CC[C@H]2[C@@H]3CCC4=CC(=O)CC[C@]4(C)[C@H]3[C@H](O)C[C@]12C | inactive
28 | O=C(c1ccc(Cl)c(S(=O)(=O)N2CCCC2)c1)N1CCN(c2ncccn2)CC1 | inactive
29 | CS(=O)(=O)N1N=C(c2ccco2)CC1c1ccccc1 (configuration not stated) | inactive
30 | CCc1cc2c(=O)n(Cc3ccco3)c(SCC(=O)N(C)C3CCS(=O)(=O)C3)nc2s1 (configuration not stated) | inconclusive [activator, single point]
31 | Cc1cc(C)c(C)c(OC(=O)c2sc(Cl)nc2C)c1 | inconclusive [activator, partial curve, poor fit]
32 | O=C(COC(=O)CNC(=O)C1CCCCC1)Nc1ccc2c(c1)OCCO2 | inactive
33 | COc1ccc(O)c(C(=O)c2cc(C#N)c(=O)n(-c3ccc(Cl)cc3)c2)c1 | inactive
34 | CCOc1ccccc1N1CCN(C(=O)c2csc(C)c2CC)CC1 | inactive
35 | O=C(CN1c2ccccc2Sc2ccccc21)N/N=C/c1ccc(Cl)cc1Cl | inconclusive [activator, partial curve, poor fit]
36 | O=[N+]([O-])c1ccccc1NC(=S)N/N=C/c1ccc(O)c(O)c1 | inconclusive [activator, partial curve, poor fit]
37 | Cc1cc(NC(=O)CS(=O)(=O)c2cn(Cc3ccc(F)cc3)c3ccccc23)no1 | inactive
38 | O=C(N/N=C/c1c[nH]c2ccccc12)c1ccc2c(c1)OCCO2 | inconclusive [activator, full curve, poor fit]
39 | C=CCc1cccc2cc(C(=O)Nc3ccc(F)cc3)c(=O)oc12 | inconclusive [activator, full curve, poor fit]
40 | COc1ccc(OC)c(-c2csc(NC(=O)c3ccc(OCC4CCCO4)cc3)n2)c1 (configuration not stated) | inconclusive [activator, full curve, poor fit]
41 | CC1(CCc2ccccc2)NC(=S)N(c2ccccc2)N1 (configuration not stated) | inconclusive [activator, partial curve, poor fit]
42 | CSCc1nc2sc(C(=O)Nc3nc(C)cs3)c(C)c2c(=O)[nH]1 | inactive
43 | Cc1ccc2nc(-c3sc4nc(C)ccc4c3N)[nH]c2c1 | inconclusive [activator, full curve, poor fit]
44 | COc1ccccc1OCCNC(=O)c1ccc2c(c1)CCC2 | inconclusive [activator, full curve, poor fit]
45 | CCOC(=O)c1[nH]c2ccc(OC)cc2c1NC(=O)CN1CCSCC1 | inactive
46 | Cc1ccc(C(=O)Nc2ccc(N3CCN(C)CC3)cc2)c(Cl)c1 | inconclusive [activator, partial curve, poor fit]

Row | SMILES | Potency
47 | O=C(CCN1C(=O)c2ccccc2C1=O)Nc1ccc2c(c1)OCCO2 | inconclusive [activator, full curve]
48 | O=C(Nc1ccc(N2CCCCC2)c(Cl)c1)c1cccnc1 | inconclusive [activator, partial curve, poor fit]
49 | C#CCOC(=O)CCC(=O)Nc1cc(OC)nc(OC)n1 | inconclusive [activator, single point]
50 | CC(=O)c1cnc(SCc2ccc(Cl)cc2)nc1C | inconclusive [activator, partial curve, poor fit]
51 | COc1cc(CN2CCN(Cc3ccc(C(F)(F)F)cc3)CC2)cc(OC)c1OC | inconclusive [activator, partial curve, poor fit]
52 | Cn1cc(/C=C/C(=O)c2ccccc2)c2ccccc21 | inconclusive [activator, full curve, poor fit]
53 | CC1Cc2ccccc2N1C(=O)COC(=O)C1(c2ccccc2F)CCCC1 (configuration not stated) | inconclusive [activator, partial curve, poor fit]
54 | CCCOc1ccc(OCCSc2nnc(N)s2)cc1 | inactive
55 | Cc1ccc(OCc2cc(C(=O)N(C)CCc3ccccc3)no2)cc1C | inconclusive [activator, partial curve, poor fit]
56 | O=C(Nc1ccc2c(c1)OCO2)c1ccc2c(c1)OCO2 | inconclusive [activator, partial curve, poor fit]
57 | COc1cccc(CNC(=O)c2cc3oc4ccccc4c3n2C)c1OC | inconclusive [activator, partial curve, poor fit]
58 | CCOC(=O)c1ccc(Cn2cnc3ccccc3c2=O)cc1 | inconclusive [activator, single point]
59 | COc1ccc(CN(CCC#N)CCC2(c3ccccc3)CC(C)N(C)CC2C)cc1OC (configuration not stated) | inactive
60 | Cc1ccc(C(=O)Nc2ccccc2C(=O)NCc2ccccc2)cc1 | inconclusive [activator, partial curve, poor fit]
61 | CC(C)(C)C(=O)Nc1nc(-c2ccccc2)ns1 | inconclusive [activator, partial curve, poor fit]
62 | COC(=O)COc1ccc(S(=O)(=O)Nc2ccccc2SC)cc1 | inactive
63 | CCOc1ccc(N2CCCCn3c2nc2c3c(=O)[nH]c(=O)n2C)cc1 | inconclusive [activator, partial curve, poor fit]
64 | CCOc1cc2[nH]c(=O)n(CCCCCC(=O)NCc3ccco3)c(=O)c2cc1OCC | inactive
65 | CC(=O)c1cn(CC(=O)Nc2ccc(C)c(C)c2)c2ccccc12 | inactive
66 | CCOC(=O)C1CCN(C(=O)CNC(=O)c2nn(-c3ccc(OC)c(Cl)c3)c(=O)c3ccccc23)CC1 | inconclusive [activator, full curve, poor fit]
67 | O=C(CC1CC2CCC1C2)Nc1nc(-c2ccccn2)cs1 (configuration not stated) | inconclusive [activator, partial curve, poor fit]
